Data on 167 variants can be found in the RNAGym collection of RNA variant scans (doi:10.7554/elife.90254).

Sequences and labels used below:
B1: LINE1-full (parent)
chain: UACGUAGGUGGUUUUCCCCUGAUAGUGCUAAGGGGGCCUGGAAGUUUGGACUGGGCAGAGCUCAACACAGCGUGGCAAAGUGGCUGUGGCUAGACUGCCUCUCUGGAUUCCUCGUCACUCAGCAGGGCAUCUCUGAGAGAAAUGCC

The source gives no read counts; variants with many changes may rest on few reads.

The data set covers variants of B1. Description: self-cleavage, relative activity (ratio to wild type); higher = more cleavage; in vitro, sequencing; the parent is a self-cleaving ribozyme.
As for A57G A124G A136G, the self-cleavage came to 0.37. Turning to A57G A67U A69G A121U, the self-cleavage was found to be 0.

C56U U62A U132C: the self-cleavage came out at 0.04.

G54C C66U A77G U112C A138G A142G: the self-cleavage turned out to be 0.04.

On to A59G A79G U81C, for which the self-cleavage is 0. With A59G A79G U81A U102C, the self-cleavage was 0.17. Regarding G60U G74A A117U, the self-cleavage stood at 0.01.

Turning to A57G A77U U91C, the self-cleavage stood at 0.8. A59G A77U A92U: the self-cleavage turned out to be 0.25. For the variant A59G U81C A129U, the self-cleavage is 0.05. Turning to C61U U73A U96C, the self-cleavage was 0.01. A59G A79G A129U A141G: the self-cleavage turned out to be 0.23. In the case of C61A A64G A65G C145U, the self-cleavage came to 0.08.

In the case of A57G A129G U132C, the self-cleavage was 1.

Turning to A57G U62A A78C, the self-cleavage came out at 0.

As to A57G U62C A78G, the self-cleavage was determined as 0.

As to C56U U62A U109A A136G, the self-cleavage was 0.01. For A57U A69G U115C, the self-cleavage is 0.3. Under A57U A67G A121C stands 0; under G54A A79G U115C A141G, 0.24; under A57G C99U U134G A142G, 0.18. Under A59G U62C U134A U143A stands 0.06; under G55A A59G A92G, 0. Under A57G C103U C146U stands 0.65. Consider G55A G60U U102A A117U U119C A124G, for which the self-cleavage was 0.01.

Take C56U A64G G139U: the self-cleavage worked out at 0.06. On to G54A A140G A141G, for which the self-cleavage was found to be 0.79.

Turning to A57G G88A U104A A124G, the self-cleavage stood at 0.07. On to G54A U104C A136G, for which the self-cleavage worked out at 1.4. As to G54A A77G U100C, the self-cleavage was determined as 0.31. Turning to A59U A64G A79G A138G, the self-cleavage is 0.11. As to G58A U62C A69G, the self-cleavage was 0.03.

With G60C U87C A129G A138G, the self-cleavage was 0.08. Under A59U A65G C113U stands 0.

Turning to A59G A69U U81A U104C, the self-cleavage is 0.

As for A57U A79G A94G U134C, the self-cleavage was 0. Under A57G U104A U143G stands 0.49. As for A59G A65U A124G, the self-cleavage turned out to be 0.12.

Consider A57G A59G A117U, for which the self-cleavage worked out at 0.15.

In the case of A57G A59G U81A, the self-cleavage amounted to 0.07.

In the case of A57G A77G U112C, the self-cleavage was determined as 0.61. For U62A A79G U81A U130C, the self-cleavage was 0. Under U62A A79U U102C A129U stands 0.07; under U62A A67G U96C U100C, 0. In the case of A59C U73C A78G A141G, the self-cleavage came out at 1.15.

Consider A57G U81C U109C, for which the self-cleavage was 0.3. As to U62A A65G A124C, the self-cleavage was determined as 0. With U62A A79G U130C, the self-cleavage was 0.07.

As for G53U U81C U85C, the self-cleavage amounted to 0.25. As for G54A U62A A94G, the self-cleavage stood at 0.07. Next, G54A U112A A141G: 0.89; A59G U62A A77U A141G: 0.01; A57G C113A C128U: 0.56. For A57G U87C C90A, the self-cleavage stood at 0.

With G54A A77U U130A A140G, the self-cleavage is 0.55. In the case of G54U A78G G144U, the self-cleavage is 0.72.

With G55U U96A A107G, the self-cleavage was found to be 0.03.

Consider A57G G75C A141G, for which the self-cleavage worked out at 0.36. Consider G54A A77G U91A U109C A117C, for which the self-cleavage was determined as 0.55. A59U A79G C98U U132C: the self-cleavage came out at 0.7. On to A57G U62C A65G G93A, for which the self-cleavage was found to be 0.08. Take A57U A64U U87C: the self-cleavage is 0.06.

Regarding A57G U96A U108C A117G, the self-cleavage came to 0. In the case of A57C U85A A141G, the self-cleavage stood at 0.04. For the variant A59G U73C C95A, the self-cleavage was determined as 0.11. On to A59G U62A U96A U100C, for which the self-cleavage turned out to be 0.27. Under A57G G72U U102A stands 1.03; under U62A A69G G89A, 0.06. For the variant G54U U102C U119A U134C, the self-cleavage was determined as 0.35. On to A57G A78G G114A, for which the self-cleavage was 0.31. With G60A C68U U73A U85C U130C, the self-cleavage worked out at 0.01. With A57G A79G A136G, the self-cleavage was found to be 0.66. Consider G54A A57C U73C, for which the self-cleavage was 0.02. Consider G55U U104A U143C, for which the self-cleavage amounted to 0.03. For G60A A79G G127U, the self-cleavage amounted to 0.03. Under A59G U108A A141G stands 0; under A59U U104C A129G, 2.91. In the case of A57G A67G C110U, the self-cleavage was found to be 0.27. As for A57G G105A A138G, the self-cleavage is 1.15. In the case of G54A A92G U130C, the self-cleavage came out at 0.09. Next, G54A U109C A142G: 0.18; G54C A57G U96A U130C A142G: 0; A57U A65G G72A U109C: 0.03.

Consider G54A A94U A124G, for which the self-cleavage was 0.11.

With A57U A69G A140G, the self-cleavage is 0.12. Turning to A57G A65U A69G, the self-cleavage was 0.07. On to A57G A64G U134A A138G, for which the self-cleavage was 0.33. For A59G U96C U132C, the self-cleavage was 0. On to G54A A57G A77G A129G, for which the self-cleavage was 0.26. As to A57C U85C C110U, the self-cleavage is 0.11. Next, A57U U132C U134C: 0.2; A57U C71G G127U: 0.03; G58A U102A A140U: 0.06. On to G60C A69G U96C U100A, for which the self-cleavage was found to be 0. Take U62A A79U A121U: the self-cleavage stood at 0.01. Under A57G A64G U73A A140G stands 0.29. On to A59G U115C A136U, for which the self-cleavage came out at 0.1.

As to A59G U109A U132A, the self-cleavage came out at 0.08. On to G60A U104A U115A, for which the self-cleavage came out at 0.02. Next, A59U A79G U104C A107U: 0.74; G54A C63U A77G A79G U134A A142U: 0.15. A59G A65G U119C: the self-cleavage was found to be 0.

In the case of A57G U73C U91A A141G, the self-cleavage was determined as 1.53. For A57G U81A U119C, the self-cleavage turned out to be 2.09. For G54A G70A U87C, the self-cleavage came to 0.02. For the variant A59C G88A A94G, the self-cleavage came out at 0.34. As for G60A U62C A78U U96C U102C, the self-cleavage was 0.14. Take A59G U73C A138U: the self-cleavage was found to be 0.16. Next, G54A A138G U143C: 1.13; A59G A67G G82U: 0.05. With U62A A64U A79U U96A A124G G125U, the self-cleavage was determined as 0.02.

As to A57U U73C A79U U130A, the self-cleavage came out at 0.24. Under A57G U73A A94C A124U stands 0.06; under A59U U96C U100C, 0.52. For the variant A59G U73A U87A U132C A140G, the self-cleavage is 0. Turning to A59G A64C U112C, the self-cleavage came out at 0.26.

Take A59U A92U A140C: the self-cleavage turned out to be 0.66. For the variant A57U A124U A142G, the self-cleavage is 0.05. Next, A57U A129G A138G: 0.15. On to A59G A78U G82A, for which the self-cleavage was found to be 0.09. A59G A77G A78G: the self-cleavage is 0.09. Consider A57G A78U U85C, for which the self-cleavage was 0.11.

As for A57G U73A U102C A141G, the self-cleavage is 0.77. Take A59G A65G U115C: the self-cleavage was found to be 0.57.

A57U G106A A124U: the self-cleavage turned out to be 0.13.

Turning to A59G C111U A138U, the self-cleavage is 0.04. Turning to A59G U100C C110U A124G, the self-cleavage came out at 0.11.

On to U62A A69U A107G A117G A138G, for which the self-cleavage was determined as 0. Turning to A57G U115C A136U A141G, the self-cleavage came to 1.84. As for A59U U109C U115C, the self-cleavage was 0.84. A59G U62A U115C: the self-cleavage was found to be 0. As to A59G A79G U134A, the self-cleavage stood at 0.03. Next, G54A A65G U115C: 0.38. For A57G U108C U115C, the self-cleavage is 0.77. Under G55U A79U A117U stands 0.66; under A59G G74A U96C, 0.02. G58A A65G U85A: the self-cleavage is 0.05.

Take A59U U96A A124U G126A: the self-cleavage is 0.08.

Consider G55A G75A A142G, for which the self-cleavage turned out to be 0.12. Consider A59G A64G C99U A142G, for which the self-cleavage is 0.01. Under G55A U85A U87C stands 0.04; under G60A A79G A141U, 0.

For A59G A65U U73C, the self-cleavage came out at 0. Next, U62A A92U C116G: 0.05. On to A57U A67U A78U, for which the self-cleavage worked out at 0.02.

Turning to A57G U62C A124U, the self-cleavage is 0.07. As for G53U U62A A79G, the self-cleavage was 0.

In the case of A57U A77G U109A, the self-cleavage is 0.12.

For A57G A69G A77G G114A, the self-cleavage stood at 0.81. For A59G U81C U87A U108G, the self-cleavage was 0. Under G54U A121G U134A stands 0.52. Under A57U A64G A107G stands 0.18; under G60U U108C A142G, 0.05. Next, G54A A65G U100C G126A: 0.16; G54U A94G C120U: 0.24; A59G U62A U85G U112C: 0. Consider A59G G88A A140C, for which the self-cleavage amounted to 0. Take G58A A69U G106A: the self-cleavage was found to be 0.04. Turning to A59G A79G U143C, the self-cleavage is 0. Regarding A57G A78G A107G A121U, the self-cleavage is 0.22. A59C U73C U119A: the self-cleavage came out at 0.66.

Turning to A57U A59G G86A U96C A136G, the self-cleavage was 0.04. As to A59G A77U A78G U115C, the self-cleavage was 0. For A57G A138G A142G, the self-cleavage is 2.92. Consider G54A C123U U130G, for which the self-cleavage stood at 0.34. For G53U U85C U112C U119C, the self-cleavage was 0.08.

In the case of A57G U115A U130C, the self-cleavage came to 0.94.
